Data from the supplement of paper PMC3334620.
In all, about 33,000 sequences were measured (“E-score (-0.5 to 0.5)”: median about -0.011, highest 2% from about 0.28 on). This is one part of the list.

biological target: T1, Gcr1 (UniProt P07261); test: PBM E-score (8-mer binding enrichment) (E-score (-0.5 to 0.5)); higher = stronger / more preferred TF binding; most listed sequences are background and not binding sites; details: protein concentration: 100 nM; construct: GST-full length
T1 sequence: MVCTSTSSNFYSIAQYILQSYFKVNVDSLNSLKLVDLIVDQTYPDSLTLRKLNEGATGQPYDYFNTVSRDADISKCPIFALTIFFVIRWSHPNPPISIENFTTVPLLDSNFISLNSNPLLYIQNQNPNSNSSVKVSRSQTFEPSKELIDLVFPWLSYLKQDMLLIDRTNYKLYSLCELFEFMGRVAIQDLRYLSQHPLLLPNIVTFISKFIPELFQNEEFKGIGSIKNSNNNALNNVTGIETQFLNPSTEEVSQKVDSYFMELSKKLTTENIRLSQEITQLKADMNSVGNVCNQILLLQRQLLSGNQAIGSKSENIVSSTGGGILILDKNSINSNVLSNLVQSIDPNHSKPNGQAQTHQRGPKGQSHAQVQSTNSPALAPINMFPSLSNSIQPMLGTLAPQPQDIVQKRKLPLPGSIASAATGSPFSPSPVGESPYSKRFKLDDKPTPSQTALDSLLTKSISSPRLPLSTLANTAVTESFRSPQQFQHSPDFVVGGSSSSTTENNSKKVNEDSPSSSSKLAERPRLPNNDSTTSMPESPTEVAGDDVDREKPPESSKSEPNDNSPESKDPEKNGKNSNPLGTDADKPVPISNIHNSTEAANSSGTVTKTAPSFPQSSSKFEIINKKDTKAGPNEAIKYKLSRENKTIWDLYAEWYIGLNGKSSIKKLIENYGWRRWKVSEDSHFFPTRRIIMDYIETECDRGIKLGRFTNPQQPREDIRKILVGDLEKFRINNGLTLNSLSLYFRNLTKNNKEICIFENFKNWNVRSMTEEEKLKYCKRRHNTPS
Summary of the method: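 For each ungapped eight-base word taken together with its reverse complement, the Universal PBM Analysis Suite assigned an E-score. Binding data came from GST-tagged yeast transcription factors, applied at about 100-200 nM, on universal all-10-mer Agilent arrays made double-stranded by primer extension. Fluorescent anti-GST marked bound protein, and scans were normalised with masliner.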

Sequence | PBM E-score
CGGTCACC | 0.00872
ATTTTGAG | 0.162
AGCGGGCA | -0.156
AAGCTAAA | -0.0804
CAGTTGCG | 0.0778
ACAGTTTG | -0.116
ACCCCATG | 0.0445
CTGCAAGA | 0.118
ATAACCAT | -0.0881
GACAGAAC | -0.0251
ACCCCGGG | -0.106
ATTATCGG | -0.0927
GGGAGTCA | 0.0276
GCTCCATA | 0.143
CGTGCTCC | 0.0296
ACCTTGCG | -0.0748
CTACCGGC | 0.132
ATTCGGTG | 0.0443
AGAGTCCA | 0.206
AAGCTACT | 0.137
GACTCTCC | -0.0341
AAATCCGT | 0.0169
GACTGACA | 0.141
CAAAGAAA | 0.0448
TTCCGGAA | 0.27

Sequence | PBM E-score
CTGGATGC | 0.425
GAGTCATC | -0.162
AACTCCTT | 0.0317
CGCTGAAG | -0.0695
ACCTACCG | -0.187
ACGTGCAG | 0.035
CAATTGAA | -0.0703
GTTATGAA | 0.201
CCGTTGCA | -0.224
ATGAAGGA | -0.126
ATCAATTG | 0.0455
GCCACCCA | -0.0571
ACCTCGCG | -0.229
CTCTTTGA | -0.037
ACTTACCC | 0.0825
AGCGTCAG | -0.0918
ACTTCGTA | 0.0106
CCTGATGA | 0.0569
GACAACGC | -0.0673
AAGAATCG | -0.141
ACTACCTC | -0.0199
GTAAGCTA | -0.0515
ACTTCTGA | 0.00793
CAAACAAC | 0.089
ATAAACCC | -0.0238

Sequence | PBM E-score
GGGGATGA | -0.141
TAAGCCGA | -0.177
AAGTGAGC | -0.074
CCCACACA | 0.147
ACGACCTG | -0.151
ATTGTATG | -0.00951
AATGCCTC | -0.00215
CAGCCGTC | -0.241
CGCTATTC | -0.0212
GCAGCTTA | 0.179
CCCCAAGA | 0.0196
ACGAGTTA | -0.102
AAATTGTA | 0.0504
TAGTAACA | 0.0733
TAATGGTA | 0.09
CCTCCCAC | -0.00343
GTCTAGAC | -0.0403
GTCTTGTA | 0.0494
ATCTGGCC | -0.17
ATACCGCC | -0.0815
TAATTGCA | -0.0517
AGCACGAA | -0.05
GCCTGCTA | -0.143
CCACCCAC | -0.0236
AGTGAGGC | -0.131

Sequence | PBM E-score
ACCAAATC | 0.0988
AGATTACC | -0.0443
AGGTTCTC | 0.173
CTTCGGCA | 0.0669
GTAAGTAC | 0.0123
CTTATGCA | 0.0737
CTCCATGA | -0.0325
AAGCGTAA | -0.0768
AGACATCC | 0.0262
AGCCATAA | 0.0703
GAGACTTA | -0.182
TACTGCGA | -0.195
CACGGACA | -0.017
AGGCCCCT | 0.135
CATTTTAC | 0.24
ATTCATTC | -0.0719
TCAAACGA | -0.145
GACATATA | -0.0745
ATTATCCG | 0.00436
AAGTCAAT | -0.0603
ATTCCTAC | 0.0721
CTGTGAGA | -0.18
AAGCGCTC | -0.0298
GTGTGCCA | 0.0266
CCGGAGGC | 0.111

Sequence | PBM E-score
CTCTCACA | -0.187
CGTTACTA | -0.01
AGTCACGA | 0.114
CCGGGTTA | -0.141
AGAACTCG | 0.102
CAGGTTTC | 0.163
GCAGTTCA | -0.157
CGTTCTGA | 0.0165
AAGACCGA | -0.227
AGCGCTAT | -0.0501
CCGGATCG | 0.00245
ACGTAACT | -0.105
ATTGCGGG | -0.0146
AACGTTAT | -0.0792
GGTCGGGA | -0.0604
CTCATTCC | 0.0687
ACATACCA | -0.0703
CGGCAATC | -0.0601
GAAAGACA | 0.0752
CGCATGGC | -0.117
AGAGCAAC | 0.00171
AGTATTTG | 0.0559
GATGACGC | 0.0537
GACCAATC | -0.00665
ACTGCTCT | -0.184

Sequence | PBM E-score
GTACTGCA | -0.237
GTGTCAGA | -0.1
GTTGAGAA | 0.088
ATTAACGG | 0.132
ATGGCCTA | -0.138
AGGGGGTC | -0.252
TCCCTGCA | -0.183
GACGTGCC | -0.14
CCCCAACC | 0.0379
GGACGTCC | 0.291
AATAGTGC | -0.175
CAGTACAC | -0.126
CTACATCC | -0.0889
CATAAGTC | -0.129
CCCGGGAG | -0.00478
CAGAACAG | -0.185
GATTTCGA | 0.0554
GAAATGCC | -0.15
AGAAAGAC | -0.056
AGGCCGTA | -0.173
CGCATGCA | -0.0879
AGTAATAA | 0.104
ACTAAGAG | 0.0934
AGCGGTGA | -0.133
TCTAAACA | 0.102

Sequence | PBM E-score
AGCCGTAA | -0.129
CCTGCTAA | -0.227
GCGCACCA | 0.175
GTATGTCA | 0.136
GAGCAGCC | 0.217
ACGCAGCG | 0.244
CAGCCCGA | -0.124
AGGTAGTA | 0.0909
ACGCGGCC | 0.0165
CGGAAGGC | 0.00052
GAAGACCA | -0.133
ATAAGAGC | -0.127
GAGTAGAA | 0.0678
ATTCATCA | -0.0442
ACAGCCAG | -0.102
ACTCTTCC | -0.211
CGATGGAA | -0.0791
AACACTGG | 0.125
AACCTACA | -0.15
CACCTAGA | 0.205
TACTCGGA | -0.0115
GAGGGCAA | -0.168
